Test results: PubChem BioAssay AID1671189 (National Center for Advancing Translational Sciences (NCATS), 2021)
In all, about 1,100 compounds went through this assay and about 70 (6%) were called active. About 22% were inconclusive and are not listed. Calls follow the shape of the dose curve; as a rule, active = well fitted curve in the direction sought with a large enough effect; inconclusive = small, poorly fitted or top-dose-only effect, or another doubt; inactive = no such curve, though single readings can be large or run the other way. The list shows a part of the results.

What follows are compounds tested against Polyunsaturated fatty acid lipoxygenase ALOX12 (Homo sapiens) (UniProt P18054) (assay: Confirmatory qHTS assay for inhibitors of human arachidonate 12S-lipoxygenase (ALOX12): Round 2). Settings: purified human 12-LOX, xylenol orange absorbance; series mostly up to 125 µM; activity change, negative = inhibition: at the top concentration.
UniProt P18054, sequence (P18054 whole entry, looked up): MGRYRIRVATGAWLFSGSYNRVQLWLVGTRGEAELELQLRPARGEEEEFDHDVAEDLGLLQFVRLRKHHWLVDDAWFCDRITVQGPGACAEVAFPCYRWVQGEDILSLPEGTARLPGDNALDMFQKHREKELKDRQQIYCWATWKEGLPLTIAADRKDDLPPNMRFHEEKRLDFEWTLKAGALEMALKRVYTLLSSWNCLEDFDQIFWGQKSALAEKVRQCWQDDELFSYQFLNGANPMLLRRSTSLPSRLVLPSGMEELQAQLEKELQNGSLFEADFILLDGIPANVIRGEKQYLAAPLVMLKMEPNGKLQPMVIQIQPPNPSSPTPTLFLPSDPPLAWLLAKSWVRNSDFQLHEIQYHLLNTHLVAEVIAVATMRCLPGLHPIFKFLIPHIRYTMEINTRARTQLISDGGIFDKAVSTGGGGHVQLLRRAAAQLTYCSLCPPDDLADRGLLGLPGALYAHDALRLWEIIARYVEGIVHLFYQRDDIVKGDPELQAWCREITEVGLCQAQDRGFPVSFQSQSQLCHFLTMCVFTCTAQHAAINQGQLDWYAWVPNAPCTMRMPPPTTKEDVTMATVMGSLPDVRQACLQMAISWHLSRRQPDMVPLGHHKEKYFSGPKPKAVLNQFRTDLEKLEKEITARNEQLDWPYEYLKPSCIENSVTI
In short: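 Activity was measured as hydroperoxide formation via ferrous/xylenol orange, taking the 573 nm to 405 nm absorbance ratio. Reaction: 40 uM arachidonic acid, 30 min at room temperature, after 15 min compound preincubation with 150 nM enzyme, pH 7.0 Hepes buffer.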
% is scaled to controls: 0 for no effect and ±100 for the full control effect; potency is read from the fitted curve at half-maximal effect.

Structure (SMILES)	activity change, negative = inhibition	Potency
O=C1NCc2ccccc2CC12CCN(Cc1ccc(F)cc1O)C2 (stereo not drawn)	inactive: -13.4%	
COc1ccc(Cl)cc1CN(C)c1cc(C2CC(N)C2)ncn1 (stereo not drawn)	inactive: 9.28% [at 64.5 µM]	
Cc1cc(C(=O)NC2CCCC2)c2c(C3CCNC3)noc2n1 (stereo not drawn)	inactive: -16.7%	
O=C(NCc1ccncc1)c1cc(C2CC2)nc2onc(C3CCCN3)c12 (stereo not drawn)	inactive: -10.6%	
CC1CCN(CC2CCCNCC2)CC1 (stereo not drawn)	inactive: 17.8% [at 64.5 µM]	
Cn1cccc1CN1CCCCC12Cc1ccccc1CNC2=O (stereo not drawn)	inactive: 139%	
CNCc1ccc(F)cc1	inactive: 3.07% [at 233 µM]	
Cc1ccc(-c2ccccc2C=O)cc1Cl	inactive: -26.7%	
CNC(=O)c1cnn2c1CN(C(=O)c1ccccc1)CC2	inactive: 6.53%	
CCCN1CCC2(Cc3ccccc3CN(C(=O)Cc3ccc(O)cc3)C2)C1 (stereo not drawn)	inactive: -35%	
O=C1CCCN1CCCN1C(=O)[C@@H]2C[C@@H](O)CN2C2(CN(Cc3ccc(OC(F)(F)F)cc3)C2)C1=O	inactive: -13% [at 64.5 µM]	
O=C1NC(=NC2CCCC2)C2(CCN(CC3CC3)C2)N1c1cccnc1 (stereo not drawn)	inactive: -8.29%	
COc1ccc([C@H]2C[C@@H](O)[C@@H](O)[C@@H]2NC(=O)Cc2ccc(Cl)cc2)cc1	inactive: 0.548% [at 64.5 µM]	
CN1CC(=O)N(C2CNC2)Cc2c(NCC3CC3)ncnc21	inactive: -4.09%	
C[S+](=O)([O-])N1Cc2ccccc2CC2(CCCN2CC2CCNCC2)C1 (stereo not drawn)	inactive: -13.3%	
Cn1ccnc1C(O)c1cc2n(n1)CCN(S(=O)(=O)C1CC1)C2 (stereo not drawn)	inactive: 1.79% [at 64.5 µM]	
COc1cccc(N2C(=O)NC(=NC3CCCC3)C23CCN(Cc2ccsc2)C3)c1 (stereo not drawn)	inactive: -22.4%	
CN1CC(=O)N(C2CCCNC2)Cc2c(NC3CCCCC3)ncnc21 (stereo not drawn)	inactive: -17.2%	
CN1CC(=O)N(C2CCCNCC2)Cc2c1ncnc2N1CCN(c2ncccn2)CC1 (stereo not drawn)	inactive: -7.46%	
N#Cc1ccc(CN2CCC3(CC(c4cccc(C(F)(F)F)c4)=NO3)C2)cc1 (stereo not drawn)	inactive: -30.1%	
CNCc1cccn1C	inactive: -7.18% [at 233 µM]	
O=C1c2ccccc2CN1C1CCN(Cc2cccc3ccccc23)CC1	inactive: -31%	
O=C(NCCN1CCN(c2ccccc2)CC1)Nc1cccc(Br)c1	inactive: -20.6%	
CC(C)NCC1(COc2ccc(C(F)(F)F)cn2)C[C@@H](O)[C@@H](O)C1 (stereo partly drawn)	inactive: 11.5% [at 64.5 µM]	
CC1C=CC(C)N1c1ncnc2c1CN(C1CCNCC1)C(=O)CN2C (stereo not drawn)	inactive: -20.5%	
C=CCNC(=O)c1cn2c(n1)CN(C(=O)c1ccccc1)CC2	inactive: -11.8%	
C=CCNc1oc(-c2cccc3ccccc23)nc1C#N	inactive: 1.51% [at 64.5 µM]	

Structure (SMILES)	activity change, negative = inhibition	Potency
O=Cc1cccc(N2CCN(C(=O)c3ccc4c(c3)OCO4)CC2=O)c1	inactive: -11%	
CC(C)[S+](=O)([O-])N1CCN(c2ccc(Cl)nn2)C(=O)C1	inactive: -24.6%	
CCN1CCCC2(Cc3ccccc3CN([S+](=O)([O-])c3ccccc3)C2)C1 (stereo not drawn)	inactive: -6.93%	
COc1cc(F)ccc1-c1ccc2c(n1)c(=O)ncn2CCC(F)(F)F	inactive: 0.683% [at 64.5 µM]	
COc1ccc(CC(=O)N2Cc3ccccc3CC23CCCN(C(=O)CCCN)C3)cc1 (stereo not drawn)	inactive: -15.4%	
CCC(=O)NC(c1cc(Cl)c2cccnc2c1O)C1CC1 (stereo not drawn)		active: 12.2 µM
COc1ccc(CNc2ncnc3c2CN(C2CCCNC2)C(=O)CN3C)cc1OC (stereo not drawn)	inactive: 6.62%	
CN1CCC(C(=O)N2CCCC3(Cc4ccccc4CN3C(=O)c3ccccc3)C2)CC1 (stereo not drawn)	inactive: -13.5%	
NCCCC(=O)N1CCC2(CC1)CN(C(=O)Cc1ccc(Cl)cc1)CCO2	inactive: -4.66%	
CCCN1CCC2(Cc3ccccc3CN(C(=O)CCCC(=O)O)C2)C1 (stereo not drawn)	inactive: -17.1%	
N#Cc1ccc(CN2CC(Oc3ccc(F)cc3F)C2)cc1	inactive: -10%	
CN1CC(=O)N(c2cccc(F)c2)Cc2c1ncnc2N1CCC(F)CC1	inactive: -13.3%	
COc1cccc([S+](=O)([O-])N2CCCC3(CC(c4cccnc4)=NO3)C2)c1 (stereo not drawn)	inactive: -9.13%	
CN(C)CCCC(=O)N1Cc2ccccc2CC2(CCCCN2CC2CCNCC2)C1 (stereo not drawn)	inactive: -14.8%	
Cc1ccc(CN2CCc3oc(C)c(C(=O)N4CCSCC4)c3C2)cc1	inactive: -4.93% [at 64.5 µM]	
O=C(c1cn2c(n1)CN([S+](=O)([O-])c1cccc(C(F)(F)F)c1)CC2)N1CCOCC1	inactive: 5.83%	
CCC(=O)N1Cc2ccccc2CC2(CCCN(CC3CCNCC3)C2)C1 (stereo not drawn)	inactive: -7.83%	
C[C@H]1c2cccc(O)c2C(O)=C2C(=O)[C@]3(O)C(O)=C(C(N)=O)C(=O)[C@@H](N(C)C)[C@@H]3[C@@H](O)[C@@H]21	inactive: -8.35%	
CCOC(=O)N1CCC(NC)CC1	inactive: 6.82%	
O=C1Nc2ccccc2CN(CC2CCCCC2)C12CCNCC2		active: 49.4 µM
NCc1ccccc1-c1ccc(O)cc1	inactive: -3.22%	
O=C(N1CCOCC1)N1CCn2c(nnc2-c2cncc(Br)c2)C1	inactive: -22%	
NCCCC(=O)N1CCC2(CC1)CC(NC(=O)CN)c1ccccc12 (stereo not drawn)	inactive: -1.81%	
COc1ccc(CCNc2ncnc3c2CN(C2CCCNC2)C(=O)CN3C)cc1 (stereo not drawn)	inactive: -9.89%	
O=C(Cn1ccc(=O)[nH]c1=O)N1C[C@H]2CC[C@@H]1CN(Cc1cscn1)C2	inactive: -1.78% [at 64.5 µM]	
CNC1CCCc2ccccc21 (stereo not drawn)	inactive: -13.2% [at 233 µM]	
